Measured values taken from publication PMC9911399, “Two distinct binding modes provide the RNA-binding protein RbFox with extraordinary sequence specificity”.
Where a chain is given by its changes, count along the chain named. Some of the results follow.

T1: RBFOX1 RRM (Homo sapiens, UniProt Q9NWB1 109-208)
T1 sequence: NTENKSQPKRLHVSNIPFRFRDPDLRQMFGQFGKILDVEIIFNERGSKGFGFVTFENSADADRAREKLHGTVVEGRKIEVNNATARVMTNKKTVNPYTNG

B1: UUAGGGU (DNA:RNA)
RNA: GGGAGACCGGAAUUCAGAUUGUCCUUAGGGUUUAAAUCCCGUCGUAGCCACCA
DNA 1: CAATCTGAATTCCGGTCTCCC
DNA 2: TGGTGGCTACGACGGGATT
B2: CUAAAUG (DNA:RNA)
RNA: B1 RNA with U25C, G28A, G29A, G30U, U31G
DNA 1: CAATCTGAATTCCGGTCTCCC
DNA 2: TGGTGGCTACGACGGGATT
B3: CCGAAGU (DNA:RNA)
RNA: B1 RNA with U25C, U26C, A27G, G28A, G29A
DNA 1: CAATCTGAATTCCGGTCTCCC
DNA 2: TGGTGGCTACGACGGGATT
B4: UCGCUUC (DNA:RNA)
RNA: B1 RNA with U26C, A27G, G28C, G29U, G30U, U31C
DNA 1: CAATCTGAATTCCGGTCTCCC
DNA 2: TGGTGGCTACGACGGGATT
B5: GACUGGG (DNA:RNA)
RNA: B1 RNA with U25G, U26A, A27C, G28U, U31G
DNA 1: CAATCTGAATTCCGGTCTCCC
DNA 2: TGGTGGCTACGACGGGATT
B6: ACAGACG (DNA:RNA)
RNA: B1 RNA with U25A, U26C, G29A, G30C, U31G
DNA 1: CAATCTGAATTCCGGTCTCCC
DNA 2: TGGTGGCTACGACGGGATT
B7: ACCACUC (DNA:RNA)
RNA: GGGAGACCGGAAUUCAGAUUGUCCACCACUCUUAAAUCCCGUCGUAGCCACCA
DNA 1: CAATCTGAATTCCGGTCTCCC
DNA 2: TGGTGGCTACGACGGGATT
B8: ACGAGAU (DNA:RNA)
RNA: B7 RNA with C27G, C29G, U30A, C31U
DNA 1: CAATCTGAATTCCGGTCTCCC
DNA 2: TGGTGGCTACGACGGGATT
B9: GUCGGUA (DNA:RNA)
RNA: B1 RNA with U25G, A27C, G30U, U31A
DNA 1: CAATCTGAATTCCGGTCTCCC
DNA 2: TGGTGGCTACGACGGGATT
B10: CAAAGAC (DNA:RNA)
RNA: B7 RNA with A25C, C26A, C27A, C29G, U30A
DNA 1: CAATCTGAATTCCGGTCTCCC
DNA 2: TGGTGGCTACGACGGGATT
B11: CACAUUU (DNA:RNA)
RNA: B7 RNA with A25C, C26A, C29U, C31U
DNA 1: CAATCTGAATTCCGGTCTCCC
DNA 2: TGGTGGCTACGACGGGATT
B12: GGAUUAG (DNA:RNA)
RNA: B1 RNA with U25G, U26G, G28U, G29U, G30A, U31G
DNA 1: CAATCTGAATTCCGGTCTCCC
DNA 2: TGGTGGCTACGACGGGATT
B13: ACCAGAU (DNA:RNA)
RNA: B7 RNA with C29G, U30A, C31U
DNA 1: CAATCTGAATTCCGGTCTCCC
DNA 2: TGGTGGCTACGACGGGATT
B14: CUCGGCC (DNA:RNA)
RNA: B1 RNA with U25C, A27C, G30C, U31C
DNA 1: CAATCTGAATTCCGGTCTCCC
DNA 2: TGGTGGCTACGACGGGATT
B15: AUGGGAG (DNA:RNA)
RNA: B1 RNA with U25A, A27G, G30A, U31G
DNA 1: CAATCTGAATTCCGGTCTCCC
DNA 2: TGGTGGCTACGACGGGATT
B16: UCCUCUA (DNA:RNA)
RNA: B7 RNA with A25U, A28U, C31A
DNA 1: CAATCTGAATTCCGGTCTCCC
DNA 2: TGGTGGCTACGACGGGATT
B17: CCACGUA (DNA:RNA)
RNA: B7 RNA with A25C, C27A, A28C, C29G, C31A
DNA 1: CAATCTGAATTCCGGTCTCCC
DNA 2: TGGTGGCTACGACGGGATT
B18: UCUGGGC (DNA:RNA)
RNA: B1 RNA with U26C, A27U, U31C
DNA 1: CAATCTGAATTCCGGTCTCCC
DNA 2: TGGTGGCTACGACGGGATT
B19: CGCACCA (DNA:RNA)
RNA: B7 RNA with A25C, C26G, U30C, C31A
DNA 1: CAATCTGAATTCCGGTCTCCC
DNA 2: TGGTGGCTACGACGGGATT
B20: UCCUACG (DNA:RNA)
RNA: B7 RNA with A25U, A28U, C29A, U30C, C31G
DNA 1: CAATCTGAATTCCGGTCTCCC
DNA 2: TGGTGGCTACGACGGGATT

Target: T1, RBFOX1 RRM
Assay: EMSA; HiTS-Eq, 1 nM pool, 10 min; buffer printed only for the single-RNA assays: 10 mM Tris pH 7.5, 150 mM NaCl, 3.4 mM EDTA, 0.001% NP-40, 30 C
Details: tags: His6 N-terminal (pET28a); label: 5' 32P
In short: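 Purified RbFox RRM, wild type or mutant, was incubated for 10 min in 50 µL with 1 nM of a 5′-radiolabelled RNA pool carrying 7 randomized nucleotides, whose flanks were annealed to DNA oligonucleotides, over a series of increasing protein concentrations. Unbound RNA was resolved on 8% native PAGE, cut out, reverse-transcribed, barcoded by PCR and sequenced on an Illumina HiSeq 2500. Relative association constants were derived from changes in read counts for each RNA species versus the control reaction and normalised to the cognate motif.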

Row | Binder | binding signal
1 | B1 | 0.00518 KA relative to UGCAUGU
2 | B2 | 0.00829 KA relative to UGCAUGU
3 | B3 | 0.00878 KA relative to UGCAUGU
4 | B4 | 0.0125 KA relative to UGCAUGU
5 | B5 | 0.0136 KA relative to UGCAUGU
6 | B6 | 0.00395 KA relative to UGCAUGU
7 | B7 | 0.00139 KA relative to UGCAUGU
8 | B8 | 0.0074 KA relative to UGCAUGU
9 | B9 | 0.0155 KA relative to UGCAUGU
10 | B10 | 0.00187 KA relative to UGCAUGU
11 | B11 | 0.00171 KA relative to UGCAUGU
12 | B12 | 0.0127 KA relative to UGCAUGU
13 | B13 | 0.00102 KA relative to UGCAUGU
14 | B14 | 0.0164 KA relative to UGCAUGU
15 | B15 | 0.00848 KA relative to UGCAUGU
16 | B16 | 0.0048 KA relative to UGCAUGU
17 | B17 | 0.00468 KA relative to UGCAUGU
18 | B18 | 0.00557 KA relative to UGCAUGU
19 | B19 | 0.00405 KA relative to UGCAUGU
20 | B20 | 0.00598 KA relative to UGCAUGU
